The DeepSol protein solubility set

Assay: soluble on expression in E. coli; label from the status in PepcDB or PDB records

Sequence	soluble on expression in E. coli
MIVGLGTDIAEIERVEKALARSGENFARRILTDSELEQFHASKQQGRFLAKRFAAKEAASKALGTGIAQGVTFHDFTISHDKLGKPLLILSGQAAELASQLQVENIHLSISDERHYAMATVILERR	not soluble
MKKNAVHFGAGNIGRGFIGKLLADADIAVTFADVNEPLVDQLSHQQEYKVKVVGSECKMETVSHVTAVNSASEALIERIIKTDLVTTAVGPTVLDIIAKTIAKGLSARFAAGNTQPLNIIACENMVRGTTHLKQQVYQFLTTEEQQQADALVGFVDSAVDRIVPPLQAANDDPLEVTVESFSEWIVDEQQFKGEIPQIEGMEKTDNLMAFVERKLFTLNTGHCVTAYLGCLKGHRTIREAIEDPCIHAQVKQAMQESGEVLIRRYGFDRALHSAYIEKILSRFANPYLVDEVDRVGRQPLRKLSANDRLIKPLLGTIEYGLPNGMLLKGIAAALKYRNSSDPQAVELQQSIEKEGVRSTLARYTGLAAESVEAQQIEALYQQMD	not soluble
